From the antibiotic and cytotoxicity screens of Wong et al. (2023)
The list shows a part of the results.

How the values were obtained:
[1] = tested on: HSkMC (human skeletal muscle cells); experiment: cytotoxicity call (relative viability < 0.9); details: 10 µM
[2] = tested on: HepG2; experiment: cytotoxicity call (relative viability < 0.9); details: 10 µM
[3] = tested on: S. aureus RN4220; experiment: growth inhibition call (relative growth <= 0.2); details: 50 µM

Compound: COc1cccc(C#Cc2ccc3c(c2)O[C@H](CN(C)C(=O)c2ccccn2)[C@@H](C)CN([C@@H](C)CO)S3(=O)=O)c1
- cytotoxicity call [1]: inactive
- cytotoxicity call [2]: inactive
- growth inhibition call [3]: inactive

Compound: CCOC(=O)Nc1ccc(NCc2ccc(F)cc2)nc1N.O=C(O)C=CC(=O)O
- cytotoxicity call [1]: inactive
- cytotoxicity call [2]: inactive
- growth inhibition call [3]: inactive

Compound: Cc1noc(C)c1S(=O)(=O)N(C)C[C@@H]1Oc2ccc(NS(=O)(=O)c3ccc(Cl)cc3)cc2CC(=O)N([C@@H](C)CO)C[C@@H]1C
- cytotoxicity call [1]: inactive
- cytotoxicity call [2]: inactive
- growth inhibition call [3]: inactive

Compound: C[C@@H]1CN([C@H](C)CO)C(=O)c2cc(C#Cc3ccccc3F)cnc2O[C@@H]1CN(C)C(=O)Cc1cccnc1
- cytotoxicity call [1]: inactive
- cytotoxicity call [2]: inactive
- growth inhibition call [3]: inactive

Compound: C[C@@H]1CCCCO[C@@H](CN(C)C(=O)NC2CCCCC2)[C@H](C)CN([C@@H](C)CO)C(=O)c2cc(NC(=O)Nc3ccc(F)cc3)ccc2O1
- cytotoxicity call [1]: inactive
- cytotoxicity call [2]: inactive
- growth inhibition call [3]: inactive

Compound: CC(C)C[C@@H](N)C(=O)NC1CCN(C(=O)C2CCCC2)CC1
- cytotoxicity call [1]: inactive
- cytotoxicity call [2]: inactive
- growth inhibition call [3]: inactive

Compound: C[C@H]1CN([C@@H](C)CO)C(=O)c2cc(NC(=O)CCCCCC(=O)Nc3ccccc3N)ccc2O[C@@H]1CN(C)C(=O)Nc1ccc(C(F)(F)F)cc1
- cytotoxicity call [1]: inactive
- cytotoxicity call [2]: inactive
- growth inhibition call [3]: inactive

Compound: CC(C)NC(=O)N(C)C[C@@H]1Oc2ccc(NC(=O)Nc3ccc4c(c3)OCO4)cc2CC(=O)N([C@@H](C)CO)C[C@@H]1C
- cytotoxicity call [1]: inactive
- cytotoxicity call [2]: inactive
- growth inhibition call [3]: inactive

Compound: CC(C)C#Cc1ccc2c(c1)O[C@@H](CN(C)C(=O)c1cnccn1)[C@H](C)CN([C@H](C)CO)S2(=O)=O
- cytotoxicity call [1]: inactive
- cytotoxicity call [2]: inactive
- growth inhibition call [3]: inactive

Compound: C[C@@H]1CN([C@H](C)CO)C(=O)Cc2cc(NC(=O)C3CC3)ccc2O[C@H]1CN(C)C(=O)NC1CCCCC1
- cytotoxicity call [1]: inactive
- cytotoxicity call [2]: inactive
- growth inhibition call [3]: inactive

Compound: C[C@@H]1CCCCO[C@@H](CN(C)S(=O)(=O)c2cccs2)[C@@H](C)CN([C@@H](C)CO)C(=O)c2cc(NS(=O)(=O)c3cn(C)cn3)ccc2O1
- cytotoxicity call [1]: inactive
- cytotoxicity call [2]: inactive
- growth inhibition call [3]: inactive

Compound: C[C@@H]1CCCCO[C@@H](CN(C)S(=O)(=O)c2cn(C)cn2)[C@@H](C)CN([C@H](C)CO)C(=O)c2cc(NC(=O)Nc3ccc(C(F)(F)F)cc3)ccc2O1
- cytotoxicity call [1]: inactive
- cytotoxicity call [2]: inactive
- growth inhibition call [3]: inactive

Compound: COc1ccc(S(=O)(=O)N(C)C[C@@H]2Oc3ccc(NC(=O)CCCN(C)C)cc3CC(=O)N([C@@H](C)CO)C[C@H]2C)cc1
- cytotoxicity call [1]: inactive
- cytotoxicity call [2]: inactive
- growth inhibition call [3]: inactive

Compound: O=C(C1=C[C@H](c2csc3ccccc23)C[C@H](OCc2ccc(CO)cc2)O1)N1CCN(Cc2ccc3c(c2)OCO3)CC1
- cytotoxicity call [1]: inactive
- cytotoxicity call [2]: inactive
- growth inhibition call [3]: inactive

Compound: Cc1ccc(S(=O)(=O)N(C)C[C@@H]2Oc3cc(Br)ccc3S(=O)(=O)N([C@H](C)CO)C[C@H]2C)cc1
- cytotoxicity call [1]: inactive
- cytotoxicity call [2]: inactive
- growth inhibition call [3]: inactive

Compound: C[C@H](CO)N1C[C@H](C)[C@@H](CN(C)C(=O)Nc2ccc3c(c2)OCO3)OCCCC[C@H](C)Oc2ccc(NS(=O)(=O)c3ccc(Cl)cc3)cc2C1=O
- cytotoxicity call [1]: inactive
- cytotoxicity call [2]: inactive
- growth inhibition call [3]: inactive

Compound: CN1C(=O)c2cc(NS(C)(=O)=O)ccc2OC[C@@H]2O[C@H](CC(=O)N3CCOCC3)CC[C@@H]21
- cytotoxicity call [1]: inactive
- cytotoxicity call [2]: inactive
- growth inhibition call [3]: inactive

Compound: COc1ccc(NC(=O)Nc2cccc3c2O[C@H](CN(C)S(=O)(=O)c2cn(C)cn2)[C@H](C)CN([C@H](C)CO)C3=O)cc1
- cytotoxicity call [1]: inactive
- cytotoxicity call [2]: inactive
- growth inhibition call [3]: inactive

Compound: C[C@@H]1CCCCO[C@H](CN(C)Cc2ccc(Cl)c(Cl)c2)[C@@H](C)CN([C@H](C)CO)C(=O)c2cc(NS(=O)(=O)c3cccs3)ccc2O1
- cytotoxicity call [1]: inactive
- cytotoxicity call [2]: active
- growth inhibition call [3]: inactive

Compound: C[C@@H]1CCCCO[C@H](CN(C)C(=O)c2ccncc2)[C@@H](C)CN([C@H](C)CO)C(=O)c2cc(NS(=O)(=O)c3ccc(Cl)cc3)ccc2O1
- cytotoxicity call [1]: inactive
- cytotoxicity call [2]: inactive
- growth inhibition call [3]: inactive

Compound: COc1ccc(C#Cc2ccc3c(c2)O[C@@H](CN(C)C(=O)c2ccccn2)[C@@H](C)CN([C@@H](C)CO)S3(=O)=O)cc1
- cytotoxicity call [1]: inactive
- cytotoxicity call [2]: inactive
- growth inhibition call [3]: inactive

Compound: C[C@H]1CN([C@@H](C)CO)C(=O)Cc2cc(NC(=O)Nc3ccc(C(F)(F)F)cc3)ccc2O[C@H]1CN(C)Cc1ccc(Oc2ccccc2)cc1
- cytotoxicity call [1]: active
- cytotoxicity call [2]: active
- growth inhibition call [3]: inactive

Compound: CC1=C(C(=O)O)N2C(=O)[C@@H](NC(=O)[C@H](N)C3=CCC=CC3)[C@H]2SC1
- cytotoxicity call [1]: inactive
- cytotoxicity call [2]: inactive
- growth inhibition call [3]: inactive

Compound: COc1ccccc1CN(C)C[C@H]1OCc2ccccc2-c2c(n(C)c3ccccc23)C(=O)N([C@H](C)CO)C[C@@H]1C
- cytotoxicity call [1]: inactive
- cytotoxicity call [2]: active
- growth inhibition call [3]: inactive
